In PMC6364948 one finds binding data, which are given here for six molecules.

Sequences of proteins named here, by UniProt entry; tags and fusion partners are left off. A change or cut given only in a name is not applied to a line headed by its entry. Residues count along the entry.
UniProt Q9NYF8: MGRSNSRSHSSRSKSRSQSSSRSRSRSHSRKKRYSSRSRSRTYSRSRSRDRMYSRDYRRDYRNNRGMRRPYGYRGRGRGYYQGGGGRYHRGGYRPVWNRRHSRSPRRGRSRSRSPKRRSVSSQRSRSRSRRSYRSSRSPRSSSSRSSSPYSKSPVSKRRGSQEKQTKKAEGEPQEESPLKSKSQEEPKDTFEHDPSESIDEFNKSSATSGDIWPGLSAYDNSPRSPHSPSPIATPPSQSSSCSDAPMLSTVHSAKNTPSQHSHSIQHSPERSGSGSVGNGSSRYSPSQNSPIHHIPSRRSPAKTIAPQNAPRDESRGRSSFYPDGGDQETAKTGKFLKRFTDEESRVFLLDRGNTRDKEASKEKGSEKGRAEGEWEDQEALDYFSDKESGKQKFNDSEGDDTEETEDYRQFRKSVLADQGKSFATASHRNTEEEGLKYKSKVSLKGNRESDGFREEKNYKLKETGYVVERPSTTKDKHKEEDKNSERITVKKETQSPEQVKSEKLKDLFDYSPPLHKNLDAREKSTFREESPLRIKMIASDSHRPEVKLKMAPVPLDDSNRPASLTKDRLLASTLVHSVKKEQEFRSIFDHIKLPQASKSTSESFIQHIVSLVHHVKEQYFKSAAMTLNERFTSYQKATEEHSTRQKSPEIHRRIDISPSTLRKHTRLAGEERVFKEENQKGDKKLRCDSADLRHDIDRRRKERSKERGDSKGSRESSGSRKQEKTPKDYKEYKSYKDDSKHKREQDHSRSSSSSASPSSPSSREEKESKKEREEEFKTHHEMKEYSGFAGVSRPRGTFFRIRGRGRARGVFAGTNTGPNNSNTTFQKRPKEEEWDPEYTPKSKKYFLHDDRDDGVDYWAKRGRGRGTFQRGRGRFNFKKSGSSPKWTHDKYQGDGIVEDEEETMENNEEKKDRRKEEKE
GST-Bclaf1 F2: residues 236-620 of Q9NYF8
UniProt P52630: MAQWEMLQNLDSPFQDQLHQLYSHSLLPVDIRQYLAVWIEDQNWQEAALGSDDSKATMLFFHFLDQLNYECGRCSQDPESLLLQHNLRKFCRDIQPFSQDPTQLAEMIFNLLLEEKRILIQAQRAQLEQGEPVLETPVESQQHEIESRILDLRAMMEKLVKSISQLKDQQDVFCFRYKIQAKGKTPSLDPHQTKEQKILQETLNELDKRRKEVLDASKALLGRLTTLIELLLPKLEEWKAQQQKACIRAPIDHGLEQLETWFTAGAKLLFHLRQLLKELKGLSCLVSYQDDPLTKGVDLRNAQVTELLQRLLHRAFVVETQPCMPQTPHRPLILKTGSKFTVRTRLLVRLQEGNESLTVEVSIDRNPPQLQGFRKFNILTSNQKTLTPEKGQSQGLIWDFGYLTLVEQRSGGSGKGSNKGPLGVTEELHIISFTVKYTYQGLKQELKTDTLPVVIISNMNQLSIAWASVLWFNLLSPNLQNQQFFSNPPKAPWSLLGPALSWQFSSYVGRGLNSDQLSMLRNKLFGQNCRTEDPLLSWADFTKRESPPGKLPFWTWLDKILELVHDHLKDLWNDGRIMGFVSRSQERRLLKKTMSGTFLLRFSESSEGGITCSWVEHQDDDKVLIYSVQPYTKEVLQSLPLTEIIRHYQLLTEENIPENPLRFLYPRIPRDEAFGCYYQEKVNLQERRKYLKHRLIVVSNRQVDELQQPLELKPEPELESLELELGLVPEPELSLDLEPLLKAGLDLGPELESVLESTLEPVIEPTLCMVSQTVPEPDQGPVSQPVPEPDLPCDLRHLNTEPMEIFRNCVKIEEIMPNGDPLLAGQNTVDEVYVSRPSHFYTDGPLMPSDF
UniProt P42224: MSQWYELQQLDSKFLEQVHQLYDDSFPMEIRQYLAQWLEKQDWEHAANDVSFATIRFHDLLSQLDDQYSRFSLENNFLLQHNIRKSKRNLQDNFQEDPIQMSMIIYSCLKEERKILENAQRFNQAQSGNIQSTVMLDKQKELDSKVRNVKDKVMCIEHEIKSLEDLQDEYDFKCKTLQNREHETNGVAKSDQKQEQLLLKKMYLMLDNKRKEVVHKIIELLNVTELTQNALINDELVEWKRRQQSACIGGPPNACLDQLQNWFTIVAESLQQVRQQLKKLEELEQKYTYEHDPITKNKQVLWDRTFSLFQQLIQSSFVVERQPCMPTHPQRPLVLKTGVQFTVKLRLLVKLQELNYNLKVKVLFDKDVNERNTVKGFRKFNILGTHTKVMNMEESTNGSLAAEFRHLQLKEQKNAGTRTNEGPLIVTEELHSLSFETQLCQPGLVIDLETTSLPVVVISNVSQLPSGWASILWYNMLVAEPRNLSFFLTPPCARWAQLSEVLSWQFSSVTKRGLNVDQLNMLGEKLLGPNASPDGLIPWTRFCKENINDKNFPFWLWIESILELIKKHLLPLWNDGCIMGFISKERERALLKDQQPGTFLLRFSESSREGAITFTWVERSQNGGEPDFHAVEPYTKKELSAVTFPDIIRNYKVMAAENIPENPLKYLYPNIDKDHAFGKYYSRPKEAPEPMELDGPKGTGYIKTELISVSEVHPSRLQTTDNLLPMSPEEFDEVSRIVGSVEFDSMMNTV

Results are given in words; binding and its absence hold for the method and conditions named. For part of these data: In cells and extracts the contact can be indirect. Some binding calls cover weakened binding; strength is not graded here. For part of these data: Sequences can lack the tags named with a protein.

The target of experiment [1] is Flag-Bclaf1 (endogenous Bclaf1 tagged by CRISPR/Cas9 in the HEp-2-Flag-Bclaf1 cell line) (human (endogenous in HEp-2)) (UniProt Q9NYF8). Kind of experiment: co-IP; Flag-antibody immunoprecipitation from nuclear extracts of HEp-2-Flag-Bclaf1 cells treated with PBS or human IFNα (500U/mL) for 2-4 h; also after si-control or si-STAT2; IgG as control immunoprecipitation.

The target of experiment [2] is STAT2 (endogenous) (human (endogenous in HEp-2 and HeLa)) (UniProt P52630). Kind of experiment: co-IP; immunoprecipitation with STAT1, STAT2 or IRF9 antibodies from nuclear extracts of HeLa cells treated with PBS or human IFNα (500U/mL) for 2 h or 4 h; blot for endogenous Bclaf1.
For experiment [3], the target named is GST-Bclaf1 F2 (UniProt Q9NYF8). Kind of experiment: pull-down; GST pull-down: purified His-STAT1/STAT2/IRF9 incubated with GST-Bclaf1 F2 or GST control in PBS with glutathione agarose, 1 h at 4°C; blots with anti-His or GST antibodies; both purified.
Experiment [4] addresses Flag-tagged Bclaf1-F2 (236–620) (UniProt Q9NYF8). Kind of experiment: co-IP; HEK293T cells co-transfected with Flag-tagged Bclaf1 or its truncations and Ha-tagged STAT1, STAT2 or IRF9; lysis buffer 50 mM Tris-Cl pH 8.0, 150 mM NaCl, 1% Triton X-100.

In the case of “STAT2 (endogenous) (from UniProt P52630 1-851)”, in experiment [1], the binding entry is “binds”.
Consider “Bclaf1 (endogenous, HeLa) (from UniProt Q9NYF8 1-920)”, for which the binding entry in experiment [2] is given as “binds”.
Turning to His-STAT1 (from UniProt P42224 1-750), the binding result in experiment [3] is “no binding”.
For His-STAT2 (from UniProt P52630 1-851), the binding result in experiment [3] is recorded as “binds”.
For the molecule “Ha-tagged STAT2 (pRK5-Ha-STAT2) (from UniProt P52630 1-851)”, the binding entry in experiment [4] is “binds”.

B1: His-IRF9 (protein, UniProt Q00978 1-393)
chain: MASGRARCTRKLRNWVVEQVESGQFPGVCWDDTAKTMFRIPWKHAGKQDFREDQDAAFFKAWAIFKGKYKEGDTGGPAVWKTRLRCALNKSSEFKEVPERGRMDVAEPYKVYQLLPPGIVSGQPGTQKVPSKRQHSSVSSERKEEEDAMQNCTLSPSVLQDSLNNEEEGASGGAVHSDIGSSSSSSSPEPQEVTDTTEAPFQGDQRSLEFLLPPEPDYSLLLTFIYNGRVVGEAQVQSLDCRLVAEPSGSESSMEQVLFPKPGPLEPTQRLLSQLERGILVASNPRGLFVQRLCPIPISWNAPQAPPGPGPHLLPSNECVELFRTAYFCRDLVRYFQGLGPPPKFQVTLNFWEESHGSSHTPQNLITVKMEQAFARYLLEQTPEQQAAILSLV
On to B1, for which, in experiment [3], the binding result is “no binding”.
